The record followed here is the supplement of paper PMC12632987.

The full ranking holds about 2,300 sequences; the median of “median log2 fold change of GCK-ALFA target abundance (FLAG IP / Myc IP barcode read proportion)” is about 0.095, and the lowest 2% start at about -0.47. Some of the results follow.

B1: LC3A_28_1115 (protein)
chain: SAIDENLAAARAEARAAAAAGEPVVVTIRVRATDSEEDIDRVIAELREIADILKDVKDAAIIIDLDGEIPEEHLNRLMDEGDEIEEKYPNITVIFALDEN
B2: LC3A_3_1878 (protein)
chain: MDERIEETIKLLKEAGKSEETIELFKEVMELLKERGWYEAAETLIEEVKKLIDAPEEILLEFLEEVLELIKNEDLSEEELIKRIKELARLARNESEIIEL
B3: LC3A_45_1949 (protein)
chain: MWRATVDVLVPEEEFEKAVEVLREEAERLEKERGVKVEIDEEALKKAREEAKENGEGLITVNVYHEDKDVALDAADEISDRLEEELSSKVATIISVEEVP
B4: LC3A_28_921 (protein)
chain: MTAEEIIAEIKKIADEAIAKGEDAFIEVKIDSSHTVEEAEAIMEEIEEEVKKLNEAGLKVDIVIDLDNVSQEVLDAVAERAEEIEKKYPNVNVVIALDEE
B5: LC3A_free_8_2530 (protein)
chain: NVQEMVNLALEELDRLEELAVKKAKELGLSRTDILELELVIGSAKIEIIEASDKSKEEILKLFNEELDEIVEEAAKYGEELEKAVREKAEEARKRMEEAL
B6: LC3A_132_283 (protein)
chain: DAAKTAALIAKVKALFAAAKAAADDDEKTAALLKEAKAYLKEVEATETPETQAAVFAAAADEYDALAALLDAAGKEDLALEADSLSIEAASLSIRAEKKI
B7: LC3A_45_1998 (protein)
chain: MYEITVDLLGPKEKVEKAVKLIKETAKKLSEETGIKIEIDEELAKASFEASRDEEEVYVRIKITIDGDEEDANKLVQELDKVLEEVGPGLSSIISVEEIE
B8: LC3A_132_253 (protein)
chain: SKELLEKALKELKEILDKIVELLQAGKDPWPAIKELYEKALEYAKKLSLEETEKLAEEVEAYAEKLFAERLDPNNEEARRALEHIEMLLESVLIEKELRS
B9: LC3A_28_1085 (protein)
chain: GKLEENLKKAIEEAKEAAAKGEEVVITITVDDTATEEDLEKALKTMEEIAEITKDLPRTTIIVDLNGSRQQEKADIFGEKADELEKKYPHLTVIIALDEE
B10: LC3A_28_1219 (protein)
chain: MKVEEEIKKAREELEKAKAAGEEALIRVEVTGSFTVEEAEELMEKLRELVKEAKDLPAVSIVIDVDGKVSQEVIDKIAEKADEIEEEFPNVTVLIALDEE
B11: LC3A_3_1728 (protein)
chain: MEEKLAAYEARIAALGLSPEVAAAALRTVRALLEKGLEEQADRLLEVLAENKDADEERLLAHLDDILRLLETDKSSKEELAKKVAEEIEVFANDGEIEEL
B12: LC3A_16_528 (protein)
chain: RAEARRALELLLAADRALETDEAAFIAAVAQLDPEAAKRAEAARGKPDARGTFATILRELAEAFRARYGDVLTPEELQTVENIATAAEMEAELTAVRLEE
B13: LC3A_3_1839 (protein)
chain: LEEEVERALKKLKEAGHSEEALEAVRETAEALKEKGYEEALREFIRLMEEMVDLPSELVKELAEEVLELVEEEDLSEEELTERIRELARLFRNESEIEEL
B14: LC3A_28_844 (protein)
chain: SKTEKDIKEALERAKRAAEEGKSEVITIKVYKGDTEEEINKIIETLEEIAEILKDLPNQAILIDFEEKIDEEHQNKIIDKAEEIEKKYPNITVIIALPEE
B15: LC3A_free_39_2181 (protein)
chain: SEEELEETKEEILELAAEEGEEAREVAEELLELVEGNLELAETILEGLKEIREAGGDVLAALQDLLALAKEMKAAGKSWEELLKAIEETLQDHLNLIPLD
B16: LC3A_45_2001 (protein)
chain: MWEITVDLLGPREKVEKAVELILKKVKEFSKKTGIKIEVNEEKAKASFEASKDEEEVYVEIEIKIDGDKEDADALVKELDKVLEEVGPGLSSIISVEEIE
B17: LC3A_28_679 (protein)
chain: SALEKEIEEALKKAKEAAKKGEPTVITIKVPGDATQEEIDKFIKALKEIAEILKDVKGAAIVIDLSSKLSQEHRDKIIDAAEEINEKYPNVTVIIALEEK
B18: LC3A_free_39_2249 (protein)
chain: SEEELEEALRRARELAETLPPEEREAFEELLELVKDNPEAVRLVTEGVERLRAEGGDVLAFLKEAKKLVEEMKKAGKSEEEIVEELKELVEDHLNLIPLD
B19: LC3A_17_585 (protein)
chain: SEEIKKEIEKLLEELKKLVKKAKEYGIPEAKEIEKLLKEAEKALKEGKLKEAAELLAKAADLLADAFDEIEEEKGDEASLLSMEASGLELEAIRLLLKLE
B20: LC3A_17_532 (protein)
chain: SEELREEVERLLKELEEVGEEAIKMIPEYKEKIEKMVKEAREKLEAGDLRGAVEKIEEAAREIADLLDETEHEDEIKKENLIMEANGIALEAIGIGLKLE
B21: LC3A_3_1689 (protein)
chain: MEELVEEVLKEAEENGLSEEALEALKRLLEALKERGYLEAIKTVLEELKKLKDVSSEKIKEMFEEILELVENEDLSEEEVVKKIKEEATVLLNDNEIIEL
B22: LC3A_28_1086 (protein)
chain: SELEANLEAALAEAREAAAKGEEVVITITVKDTATEEDLERALKTMEEIAEITKDLPRTTIIVDLDGEKQQEKADIFGKHADELEKKYPHLTVIIALDEE
B23: LC3A_3_1619 (protein)
chain: LEERVEEALKELKEAGASEEVLKAFKELAEELLEKGYYEALETLIEEMREIKDLPNEIILDALEEVLEVVKTEDLNEEELIERIKEIFRTARNESEIIEL
B24: LC3A_28_795 (protein)
chain: AEIDATLAAARAEARAALARGEEAVIEIRVPRGTTVEDARRIAAGLREIAEEAAGLPSLTFVIDLERGVSQEVLDVLADGGEEIEERYPNVSVVIALEEE
B25: LC3A_147_424 (protein)
chain: YKVTVEAYFKVKKDGKEALKAIEELAEELKKEGAKKVKIEKIEDKEDGTIYVKVTIESIKETKEEAQAFADKVIDRFEELEKKHKDTLKLVAISVSIEKA
B26: LC3A_132_237 (protein)
chain: AQAKLEAIKAQIDAQLAALRANLDDLAAVQAQIAAIEALLEQAKKELSPEDFLKLASDTSDKLDAIAEEAEAAGKAEVAALVNNLSMYADGLAIEAELKI
B27: LC3A_3_1624 (protein)
chain: MEEELKKTIEELKEAGWSEETLEKLKETVKLLKEKGYEEAAKTLLEEMRELKDAPSEILLDMLEEVKKVVETENLNEEELIKRIKEIARTARNESEIIEL
B28: LC3A_3_1541 (protein)
chain: LEEELEELLKELKEAGASEETLEAVRRAYEALLERGYEEAAKTFLEEMRELLDAPSELLLDFANEVLELVETSDLDEEELVKEIKEIARTIRNESEIIEL
B29: LC3A_28_1005 (protein)
chain: SELEKQIEEALAKAKEAAKKGEPVVITLKVGGDATEEDIEKLIEAMEEIAEILKDIKGSAIIVDLDSKLSQEHKDKIIDKGEEIEKKYPNITVIIALDED

The test deals with MAP1LC3A, Q9H492. In words: median log2 fold change of GCK-ALFA target abundance (FLAG IP / Myc IP barcode read proportion) (log2 ratio); each designed protein is fused to an ALFA-tag nanobody in HEK293 cells to bring the named protein to FLAG-tagged glucokinase (GCK); Myc marks an untargeted standard; higher = target protein stabilised (more abundant). The following applies: target protein: 3xFLAG-MCP-GCK-ALFA reporter; HEK293 landing pad (RPLP). The procedure, abridged:
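The readout is target abundance, the per-binder median log2 ratio of FLAG to Myc barcode read proportions. It came from HEK293 landing-pad cells carrying a recombined ALFA-nanobody-fused binder library, induced with 2 μg mL^−1 doxycycline and transfected with a plasmid for a FLAG-tagged target and a Myc-tagged standard. After 48 h, lysates were immunoprecipitated with anti-FLAG and anti-Myc, and circular RNA barcodes were reverse transcribed, amplified and sequenced. Each barcode needed a proportion of at least 10^−7 in both replicates and each binder at least 3 barcodes per replicate, a pseudocount of 10^−6 was added, and the replicates were pooled.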
B1: the “median log2 fold change” value was -0.341.
Regarding B2, the “median log2 fold change” value is 0.199.
In the case of B3 it was 0.0651; in that of B4, -0.0386; in that of B5, 0.118.
The same measure for B6: 0.184.
As for B7, the “median log2 fold change” value amounted to 0.273.
In the case of B8 it was 0.0444; in that of B9, 0.034.
In the case of B10 it was 0.0823; in that of B11, 0.298; in that of B12, 0.328.
In the case of B13, the “median log2 fold change” value amounted to 0.121.
On to B14, for which the “median log2 fold change” value was -0.471.
The same measure for B15: 0.0275; for B16: 0.205.
The same measure for B17: 0.0231.
The same measure for B18: 0.2; for B19: -0.00293; for B20: 0.226.
On to B21, for which the “median log2 fold change” value was determined as 0.245.
The same measure for B22: 0.0338.
In the case of B23 it was 0.0565; in that of B24, -0.011; in that of B25, -0.463.
Turning to B26, the “median log2 fold change” value stood at 0.233.
The same measure for B27: 0.327.
In the case of B28 it was 0.0862.
The same measure for B29: -0.041.
